The structures appear in SMILES notation. The campaign covered roughly 48,000 compounds. About 1,200 (2.5%) were called active. About 2% were inconclusive and are not listed.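 The calls were made as follows: active = activation of at least 60% and not above a set upper limit (about 1 call in 100 departs from these limits); inconclusive = activation of 40% to 60%, or above that upper limit; inactive = activation under 40%.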 This is one part of the list.

Sequence of UniProt O75388 (O75388 whole entry, looked up): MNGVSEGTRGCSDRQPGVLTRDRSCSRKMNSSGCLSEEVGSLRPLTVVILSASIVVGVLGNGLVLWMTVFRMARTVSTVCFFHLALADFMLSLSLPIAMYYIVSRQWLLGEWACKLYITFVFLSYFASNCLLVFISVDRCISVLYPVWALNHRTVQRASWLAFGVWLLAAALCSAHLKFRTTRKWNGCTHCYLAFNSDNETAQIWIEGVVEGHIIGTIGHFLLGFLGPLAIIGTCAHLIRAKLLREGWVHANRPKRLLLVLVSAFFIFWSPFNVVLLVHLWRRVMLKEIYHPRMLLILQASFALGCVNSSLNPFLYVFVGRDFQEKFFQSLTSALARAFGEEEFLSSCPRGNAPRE

The target in the experiment is Probable G-protein coupled receptor 32 (Homo sapiens) (UniProt O75388). As to the kind of experiment: qHTS for Agonists of Human Resolvin D1 Receptor DRV1. Also: 0% is about no effect. The settings on record: CHO-K1 GPR32 beta-arrestin PathHunter luminescence, 90 min; at 76.9 µM; hits give high values; zero percent set by DMSO-only wells. In short, it runs like this:
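Step 1: seed CHO-K1 GPR32 beta-arrestin cells, 2,500/well, overnight at 37 °C. Step 2: add compounds, 90 min at 37 °C. Step 3: detection reagent, 1 h ambient, then luminescence.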
On the technique in general: Quantitative high-throughput screening tests each substance at several concentrations.
For the compound `CC1CN(C(=O)Nc2ccc(C(=O)NCc3cccc(F)c3)cc2)c2ccccc2S1` (stereo unspecified), the activation was inactive: -28.6%.
Consider `C[C@H]1[C@H]2CC[C@H]3[C@@H]4CC=C5C[C@@H](N(C)C)CC[C@]5(C)[C@H]4CC[C@]23CN1C`, for which the activation is inactive: 5.2%.
For the compound `O=c1c(S(=O)(=O)c2ccccc2)cn(Cc2ccccc2)c2cc(N3CCOCC3)c(F)cc12`, the activation is inactive: -24.1%.
Regarding `Cc1cccc(C)c1Nc1sc(C(=O)c2ccccc2)c(N)c1C(=O)Nc1ccc(F)cc1`, the activation was inactive: -122%.
With `CCc1cccc(NC(=O)Cn2nc(-c3ccc(OC)cc3)ccc2=O)c1` the figure was inactive: -2.16%; with `CCOc1ccccc1NC(=O)Cn1c(=O)n(Cc2ccccc2)c(=O)c2c(C)c(C)sc21`, inactive: 11.7%.
As to `CCOC(=O)c1ccc(N2C(=O)c3n[nH]c(-c4cccs4)c3C2c2ccc(C(C)(C)C)cc2)cc1` (stereo unspecified), the activation is inactive: -4.49%.
Take `O=C(Nc1nc2n(n1)C(c1ccccc1)C=C(c1ccccc1)N2)c1ccc(Cl)c([N+](=O)[O-])c1` (stereo unspecified): the activation was inactive: -36.9%.
For `CCC(C)NC(=O)Cn1ncc2c([nH]c3ccc(C)cc32)c1=O` (stereo unspecified), the activation is inactive: -11.3%.
With `COc1cccc(-c2ccc3c(N)c(C(=O)c4ccc(Cl)cc4)sc3n2)c1` the figure was inactive: -19.8%; with `CCOC(=O)c1[nH]c(C)c(CCC(=O)NCc2ccc(OCC)cc2)c1C`, inactive: -12.2%.
With `Cc1ccc(NC(=O)c2c(C)oc3ccc(O)c(CN4CCCCCC4)c23)c(C)c1`, the activation is inactive: -22.9%.
`COc1cc(NC(=O)C2CCCN(S(=O)(=O)c3ccc4c(c3)oc(=O)n4C)C2)c(C(=O)O)cc1OC` (stereo unspecified): the activation was inactive: 31.3%.
For `CCCCC(Sc1nc2cc3c(cc2c(=O)n1CCCC(=O)NCc1ccc(OC)cc1)OCO3)C(=O)OCC` (stereo unspecified), the activation is inactive: -25.8%.
With `COc1ccc2c(C)c(CC(=O)NCc3ccc(C)cc3)c(=O)oc2c1OC` the figure was inactive: 15.7%; with `CC(C)OCCCNC(=O)c1cc2c(-c3ccc(Cl)cc3)nn(C)c2s1`, inactive: 2.15%; with `CCc1ccc(NC(=O)C(=O)NCCc2csc(-c3ccc(C(F)(F)F)cc3)n2)cc1`, inactive: -13%.
With `O=C(NCc1ccccc1F)c1ccc(CN2CC(=O)N3CCCCC3C2=O)cc1` (stereo unspecified), the activation was inactive: -14%.
`Cc1cc(C)c(NC(=O)Cn2c(=O)n(Cc3ccc4c(c3)OCO4)c(=O)c3ccc(C(=O)NC4CCCCC4)cc32)c(C)c1`: the activation is inactive: -23.1%.
The result for `N#C/C(=C\c1ccc(Cl)cc1)c1nc(-c2cc3ccccc3oc2=O)cs1` reads inactive: -3.34%; that for `COc1cccc(C(=O)N2c3cc(C)ccc3C(C)(c3ccccc3)CC2(C)C)c1` (stereo unspecified), inactive: -23.1%; that for `CCc1ccc(CNC(=O)c2cnc3sc4cc(OC)ccc4n3c2=O)cc1`, inactive: 6.03%.
The result for `CCCn1c2ccccc2c2cnn(CC(=O)N3CCC(C)CC3)c(=O)c21` reads inactive: -1.49%.
The result for `CCOC(=O)c1sc2cccc(F)c2c1S(=O)(=O)N1CCN(c2cccc(Cl)c2)CC1` reads inactive: -16.2%; that for `CCC(=O)N1CCc2cc(S(=O)(=O)NC(C(=O)Nc3ccc(C(C)=O)cc3)C(C)C)ccc21` (stereo unspecified), inactive: -9.31%.
With `Cc1cc(C)c2c(CC(=O)N(Cc3ccccc3)C3CCS(=O)(=O)C3)coc2c1` (stereo unspecified), the activation is inactive: -13.8%.
`Cn1c(=O)oc2cc(S(=O)(=O)Nc3ccc(C(=O)O)cc3)ccc21`: the activation was inactive: 7.89%.
The result for `CCC(=O)N1CCc2cc(Br)cc(S(=O)(=O)N3CCCC(C(=O)N(C)c4ccc(Br)cc4)C3)c21` (stereo unspecified) reads inactive: -4.66%; that for `COc1ccc(NC(=O)c2cccn2-c2nnc(N3CCCCC3)s2)cc1`, inactive: -12.5%; that for `COc1ccccc1CNC(=O)c1ccc(-c2nc(CN3CCc4ccccc43)c(C)o2)cc1`, inactive: -12.1%.
Turning to `Cc1ccc(OCC(=O)Nc2ccc3nc(SCC(=O)N4CCc5ccccc54)sc3c2)cc1`, the activation is inactive: -9.47%.
The result for `CCn1c(=O)c2sccc2n2c(CCC(=O)Nc3cc(C)cc(C)c3)nnc12` reads inactive: 37%; that for `CCOC(=O)C1CCCN(c2nc3c(S(=O)(=O)c4ccc(C)c(C)c4)nnn3c3ccc(Cl)cc23)C1` (stereo unspecified), inactive: -4.42%; that for `Cc1ccc(Cl)cc1N1CCN(c2ncnc3onc(C)c23)CC1`, inactive: -8.21%.
The result for `COc1ccc2c(c1)CC(C(=O)NCCCN1CCN(c3ccc(F)cc3)CC1)CO2` (stereo unspecified) reads inactive: -0.185%; that for `COc1cccc(N2CCN(C(=O)C3CCN(S(=O)(=O)c4ccc5c(c4)oc(=O)n5C)CC3)CC2)c1`, inactive: 8.6%; that for `Clc1ccc(N2CCN(c3ncnc4c3nc3n4CCCC3)CC2)cc1`, inactive: 13.8%.
As for `COc1ccc(-c2nc(CS(=O)CC(=O)NCc3ccccc3OC)c(C)o2)cc1` (stereo unspecified), the activation is inactive: 2.92%.
Consider `COc1cccc(C(=O)Nc2cc3c(cc2C(=O)c2ccc(C)cc2)OCCO3)c1`, for which the activation is inactive: -8.03%.
On to `COc1cc(C(=O)Nc2ccc3oc(-c4ccc(C)c(Br)c4)nc3c2)cc(OC)c1OC`, for which the activation is inactive: -9.97%.
In the case of `COc1ccc(N2CCN(c3oc(/C=C/c4cc(OC)c(OC)c(OC)c4)nc3C#N)CC2)cc1`, the activation is inactive: -15.9%.
With `COc1ccc(F)cc1S(=O)(=O)NCCc1sc2nc(-c3ccc(F)cc3)nn2c1C` the figure was inactive: -1.48%.
In the case of `CCc1nnc(SCC(=O)Nc2ccc(F)cc2F)c2cc3sc(C)cc3n12`, the activation is inactive: 0.629%.
With `CCOC(=O)c1ccccc1NC(=O)N(C)CCc1c(C)nn(CC)c1C`, the activation is inactive: 2.34%.
Take `Cc1cc(C)cc(Oc2nc3c(c(=O)n(C)c(=O)n3C)n2Cc2ccc(F)cc2)c1`: the activation was inactive: -5.92%.
The result for `Cc1cc(C)c2c(CC(=O)Nc3c(C(=O)Nc4ccc(Cl)cc4)oc4ccccc34)coc2c1` reads inactive: 6.75%; that for `COc1ccc(CNC(=O)CN2C(=O)c3cccnc3Oc3ccc(C)cc32)cc1`, inactive: -10.8%; that for `CCc1cccc(C)c1NC(=O)CSc1nnc(CC)n2c1cc1occc12`, inactive: -4.57%.
Turning to `Cc1cc(OCC(=O)N(Cc2sccc2C)C2CCS(=O)(=O)C2)ccc1Cl` (stereo unspecified), the activation was inactive: -18.6%.
With `COc1ccc(Nc2cc(C(=O)NCc3ccccc3OC)c3ccccc3n2)cc1` the figure was inactive: 2.45%; with `CCCSCCCNC(=O)c1ccc2nc(Cc3ccccc3)oc2c1`, inactive: -13%.

(Values after PubChem BioAssay AID1346428 (National Center for Advancing Translational Sciences (NCATS), 2018).)
